In one test the target is T1, ERLIN1–FLAG (UniProt O75477).
T1 sequence: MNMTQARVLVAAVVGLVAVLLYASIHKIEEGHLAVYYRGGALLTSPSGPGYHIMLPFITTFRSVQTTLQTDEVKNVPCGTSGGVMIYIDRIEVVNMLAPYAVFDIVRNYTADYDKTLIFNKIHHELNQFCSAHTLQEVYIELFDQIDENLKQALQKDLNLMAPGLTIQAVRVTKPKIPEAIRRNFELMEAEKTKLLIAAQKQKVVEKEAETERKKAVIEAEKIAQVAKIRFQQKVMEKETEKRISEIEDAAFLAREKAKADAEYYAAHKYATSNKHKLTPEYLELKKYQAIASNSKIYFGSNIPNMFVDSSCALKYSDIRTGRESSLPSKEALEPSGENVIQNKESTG
Nature of the test: co-IP; FLAG-tagged proteins overexpressed 48 h in wild-type and EVI/WLS KO HEK293T cells; lysis in 20 mM Tris-HCl pH 7.4, 130 mM NaCl, 2 mM EDTA, 10% glycerol, 1% Triton X-100; anti-FLAG M2 Affinity Gel or control agarose beads overnight at 4°C; eluted with 3× FLAG peptide; western blot of endogenous partners. In general terms: Immunoblotting shows a protein as a band on a membrane.

Protein sequences, listed by entry. Tags and fused reporters are not part of them.
UniProt P61086: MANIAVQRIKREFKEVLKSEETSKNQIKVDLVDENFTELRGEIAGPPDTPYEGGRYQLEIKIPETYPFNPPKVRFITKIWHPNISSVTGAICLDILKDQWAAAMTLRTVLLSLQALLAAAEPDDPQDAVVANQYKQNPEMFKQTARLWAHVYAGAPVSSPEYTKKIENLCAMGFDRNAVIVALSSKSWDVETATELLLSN

The test “UBXN4–FLAG (human)” addresses T2, UBXN4–FLAG (human (from the printed UniProt entry)) (UniProt Q92575).
T2 sequence: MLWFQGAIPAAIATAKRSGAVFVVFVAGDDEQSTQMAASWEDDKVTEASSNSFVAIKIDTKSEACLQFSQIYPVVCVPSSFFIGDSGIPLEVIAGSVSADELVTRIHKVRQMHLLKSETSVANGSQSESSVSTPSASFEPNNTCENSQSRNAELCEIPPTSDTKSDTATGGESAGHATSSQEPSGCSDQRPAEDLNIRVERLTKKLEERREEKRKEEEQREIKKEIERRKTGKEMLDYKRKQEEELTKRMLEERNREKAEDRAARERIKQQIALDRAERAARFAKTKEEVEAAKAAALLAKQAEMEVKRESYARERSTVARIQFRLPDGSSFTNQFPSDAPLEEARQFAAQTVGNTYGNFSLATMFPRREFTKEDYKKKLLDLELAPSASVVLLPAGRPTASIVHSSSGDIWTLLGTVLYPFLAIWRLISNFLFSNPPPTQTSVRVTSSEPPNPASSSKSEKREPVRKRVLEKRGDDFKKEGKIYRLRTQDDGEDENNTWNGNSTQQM
The test is described as above.

The next test concerns the target T3, PORCN–FLAG (UniProt Q9H237).
T3 sequence: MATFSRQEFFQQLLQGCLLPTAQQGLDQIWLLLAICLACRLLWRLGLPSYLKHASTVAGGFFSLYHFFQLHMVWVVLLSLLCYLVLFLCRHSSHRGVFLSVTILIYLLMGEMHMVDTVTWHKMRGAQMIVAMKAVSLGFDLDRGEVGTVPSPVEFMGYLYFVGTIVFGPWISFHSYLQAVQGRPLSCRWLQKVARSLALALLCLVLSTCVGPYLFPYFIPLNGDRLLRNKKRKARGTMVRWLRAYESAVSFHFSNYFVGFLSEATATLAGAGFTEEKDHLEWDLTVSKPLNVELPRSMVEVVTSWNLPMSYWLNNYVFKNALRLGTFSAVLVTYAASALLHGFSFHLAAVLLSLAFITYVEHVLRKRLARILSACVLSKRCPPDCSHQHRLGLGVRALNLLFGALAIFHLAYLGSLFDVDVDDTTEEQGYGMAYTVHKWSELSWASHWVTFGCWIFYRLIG
The description is as above.

The test “FAF2–FLAG (human)” has as its target T4, FAF2–FLAG (human (from the printed UniProt entry)) (UniProt Q96CS3).
T4 sequence: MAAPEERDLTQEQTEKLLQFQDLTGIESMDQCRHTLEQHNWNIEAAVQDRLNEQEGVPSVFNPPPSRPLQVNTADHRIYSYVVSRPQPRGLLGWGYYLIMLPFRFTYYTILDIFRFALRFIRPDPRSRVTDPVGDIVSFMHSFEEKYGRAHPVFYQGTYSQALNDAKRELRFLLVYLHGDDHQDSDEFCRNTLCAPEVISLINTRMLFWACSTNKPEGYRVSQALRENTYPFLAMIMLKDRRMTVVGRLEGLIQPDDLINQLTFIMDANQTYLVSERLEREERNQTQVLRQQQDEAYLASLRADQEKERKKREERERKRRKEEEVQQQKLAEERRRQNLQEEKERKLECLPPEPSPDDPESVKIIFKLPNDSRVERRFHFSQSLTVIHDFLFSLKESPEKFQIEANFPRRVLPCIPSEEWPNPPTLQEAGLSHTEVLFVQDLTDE
The test is described as above.

The test “ERLIN2–FLAG (human)” addresses T5, ERLIN2–FLAG (human (from the printed UniProt entry)) (UniProt O94905).
T5 sequence: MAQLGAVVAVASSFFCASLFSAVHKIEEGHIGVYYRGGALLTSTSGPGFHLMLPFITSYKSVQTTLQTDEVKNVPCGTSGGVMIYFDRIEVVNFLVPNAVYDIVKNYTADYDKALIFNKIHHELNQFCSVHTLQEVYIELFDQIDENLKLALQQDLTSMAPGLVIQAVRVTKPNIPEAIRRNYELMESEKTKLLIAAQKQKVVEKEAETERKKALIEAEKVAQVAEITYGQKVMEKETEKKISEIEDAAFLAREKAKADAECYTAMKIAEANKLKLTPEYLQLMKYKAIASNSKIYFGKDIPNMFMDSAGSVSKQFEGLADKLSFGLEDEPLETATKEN
The test is described as above.

The test “FLAG–UBE2K (human)” addresses FLAG–UBE2K (human (from the printed UniProt entry)) (UniProt P61086). Described as above.
The target in test [1] is T6, FAF2 (endogenous) (human (endogenous in HEK293T)) (UniProt Q96CS3).
T6 sequence: T4 sequence
Nature of the test: co-IP; endogenous IP without overexpression; wild-type and EVI/WLS KO HEK293T cells; lysis in 50 mM Tris-HCl pH 7.5, 150 mM NaCl, 1 mM EDTA, 10% glycerol, 0.25% sodium deoxycholate, 1% NP-40 alternative; 1 mg protein with 1 µl antibody and Dynabeads Protein G overnight at 4°C; western blot.

The target in test [2] is T7, ERLIN2 (endogenous) (human (endogenous in HEK293T)) (UniProt O94905).
T7 sequence: T5 sequence
The test is described as above.

Results are given in words; binding and its absence hold for the method and conditions named. Binding seen in cells or lysates may run through a third protein. Some entries that bind do so weakly or less than the wild type. For part of these data: Sequences can lack the tags named with a protein.

Regarding “VCP (endogenous) (from UniProt P55072 1-806)”, the binding result in the test with ERLIN1–FLAG is “no binding”.

B1: FAF2 (endogenous) (protein, UniProt Q96CS3 1-445)
chain: T4 sequence
On to B1, for which the binding entry with UBXN4–FLAG (human) was “no binding”; with PORCN–FLAG, “binds”.

B2: ERLIN2 (endogenous) (protein, UniProt O94905 1-339)
chain: T5 sequence
Regarding B2, the binding result in the test with FAF2–FLAG (human) and with PORCN–FLAG was “binds” throughout.

B3: EVI/WLS (endogenous) (protein, UniProt Q5T9L3 1-541)
chain: MAGAIIENMSTKKLCIVGGILLVFQIIAFLVGGLIAPGPTTAVSYMSVKCVDARKNHHKTKWFVPWGPNHCDKIRDIEEAIPREIEANDIVFSVHIPLPHMEMSPWFQFMLFILQLDIAFKLNNQIRENAEVSMDVSLAYRDDAFAEWTEMAHERVPRKLKCTFTSPKTPEHEGRYYECDVLPFMEIGSVAHKFYLLNIRLPVNEKKKINVGIGEIKDIRLVGIHQNGGFTKVWFAMKTFLTPSIFIIMVWYWRRITMMSRPPVLLEKVIFALGISMTFINIPVEWFSIGFDWTWMLLFGDIRQGIFYAMLLSFWIIFCGEHMMDQHERNHIAGYWKQVGPIAVGSFCLFIFDMCERGVQLTNPFYSIWTTDIGTELAMAFIIVAGICLCLYFLFLCFMVFQVFRNISGKQSSLPAMSKVRRLHYEGLIFRFKFLMLITLACAAMTVIFFIVSQVTEGHWKWGGVTVQVNSAFFTGIYGMWNLYVFALMFLYAPSHKNYGEDQSNGDLGVHSGEELQLTTTITHVDGPTEIYKLTRKEAQE
Take B3: the binding result was “binds” in the test with FAF2–FLAG (human); “no binding” in the test with ERLIN1–FLAG; “binds” with UBXN4–FLAG (human); “binds” with ERLIN2–FLAG (human); “no binding” with FLAG–UBE2K (human); “binds” in test [1]. In addition, the binding entry in test [2] was “binds”.

These data come from PMC8435288.
